Data taken from PubChem BioAssay AID1508624 (National Center for Advancing Translational Sciences (NCATS), 2021).
The whole screen tested about 48,000 compounds, of which about 120 (0.25%) were called active. Another 4% or so got no clear call; they are omitted. The call rests on the fitted dose curve; in most records, active means well fitted activation curve with a large enough effect; inconclusive means small, poorly fitted or top-dose-only effect, or another doubt; inactive means no such curve, though single readings can be large or run the other way. Some of the results follow.

Assay: Primary qHTS for Identification of Small Molecule Activators of Huntingtin-Antisense Promoter Activity; further: nearly all actives have a fitted effect of over 55% in size
Conditions: HEK293 HTT-AS promoter firefly luciferase reporter (activity 0% = vehicle and -100% = no light), 24 h; series mostly up to 57.5 µM; activity change, positive = activation: at the top concentration
Summary of the method: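 Luminescence was read after Dual-Glo reagent and a 10 min room-temperature incubation. Values were normalized to vehicle (0% activity) and zero RLU (-100% activity). Reporter HEK293 cells had been exposed to compounds (up to 57.5 uM final) for 24 h.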

Row | SMILES | activity change, positive = activation
1 | CCOc1cc(CNC(=O)NC2COc3ccccc3C2)cc(OCC)c1OCC (stereo unspecified) | inactive: -10.7%
2 | Cc1ccc(OCC(=O)Nc2nnc(SCc3cc(=O)n4cccc(C)c4n3)s2)cc1 | inactive: -1.05%
3 | CC1=C(C(=O)N2CCN(c3ccc(Cl)cc3)CC2)C2(CCC(C)CC2)OC1=O (stereo unspecified) | inactive: -21.3%
4 | O=C(Cn1c(=O)n(Cc2ccccc2)c(=O)c2sc3ccccc3c21)Nc1ccc(F)cc1 | inactive: -19.5%
5 | CCCC(=O)Nc1ccc(OCC(O)CNC(C)C)c(C(C)=O)c1 (stereo unspecified) | inactive: -8.75%
6 | COc1ccc(-c2nc3sc(CCNC(=O)C(=O)Nc4ccc(C)c(C)c4)c(C)n3n2)cc1 | inactive: -12.2%
7 | CCOC(=O)c1cc(-c2ccccc2)n(CC(=O)NCc2ccccc2)c1C | inactive: -25.8%
8 | Cc1ccc(C)c(Cn2c(=O)n(CCCC(=O)NCCc3ccc(Cl)cc3)c(=O)c3ccccc32)c1 | inactive: -17.2%
9 | O=C(COc1ccc(Cl)cc1)NCC(c1cccs1)S(=O)(=O)c1ccc(F)cc1 (stereo unspecified) | inactive: -29.4%
10 | CCC(C)NC(=O)Cn1c(=O)n(-c2ccc(OC)c(OC)c2)c(=O)c2ccccc21 (stereo unspecified) | inactive: -11.7%
11 | Cc1ccc2c(c1)Cc1c(nc(-c3ccc(F)cc3)nc1SCC(=O)N1CCCCC1)O2 | inactive: 9.04%
12 | Cc1ccc(Nc2c(-c3cccnc3)nc3ccc(Cl)cn23)cc1 | inactive: 6.29%
13 | CC[C@H](Nc1ncnc2nc[nH]c12)c1nc2cccc(F)c2c(=O)n1-c1ccccc1 | inactive: -11.9%
14 | CCOC(=O)C1CCN(C(=O)c2c(C)nn(-c3ccc(F)cc3)c2-n2cccc2)CC1 | inactive: -19.3%
15 | COc1ccc2cc(CCNS(=O)(=O)c3ccc(C)cc3)c(=O)[nH]c2c1 | inactive: -10.1%
16 | COc1ccc(C(=O)Nc2nnc(S(=O)(=O)N(C)c3ccc(C)cc3)s2)cc1 | inactive: -6.7%
17 | COc1ccc(C(=O)Nc2nnc(S(=O)(=O)N3CCN(c4ccc(F)cc4)CC3)s2)cc1 | inactive: -4.61%
18 | CCc1ccccc1Nc1ncnc2c1cnn2-c1ccc(C)cc1C | inactive: -2.26%
19 | CC(C)COc1ccc(C(=O)Nc2nnc(S(=O)(=O)N(C)Cc3ccco3)s2)cc1 | inactive: -6.08%
20 | COc1cccc(CNC(=O)c2cc3c(=O)n(Cc4cccnc4)ccc3nc2C)c1 | inactive: -15.9%
21 | CCc1cccc(NC(c2ccccc2)c2nnc(-c3ccccc3F)o2)c1 (stereo unspecified) | inactive: 9.61%
22 | CCOC(=O)c1c(C)[nH]c(C)c1S(=O)(=O)N1CCCC(C(=O)NCc2ccccc2Cl)C1 (stereo unspecified) | inactive: -16.6%
23 | CC(=O)Nc1ccc(OCC(O)CNC(C)C)cc1 (stereo unspecified) | inactive: -0.738%

Row | SMILES | activity change, positive = activation
24 | COc1ccccc1CNC(=O)CN(c1ccccc1OC)S(C)(=O)=O | inactive: -19.9%
25 | CCc1ccc(C2C(C(=O)Nc3ccccc3OC)=C(C)Nc3nc(SCc4ccccc4)nn32)cc1 (stereo unspecified) | inactive: -5.01%
26 | CCOc1ccc(CNC(=O)CN2N=C(c3ccccc3)CCC2=O)cc1OC | inactive: -6.45%
27 | Cc1ccc(-n2ncc(C(=O)NCCN3CCN(C)CC3)c2C2CCN(C(=O)OC(C)(C)C)CC2)cc1 | inactive: -12.9%
28 | Cc1nc(C)c(-c2ccc(SCC(=O)Nc3cccc(C)c3C)nn2)s1 | inactive: -13.6%
29 | Cc1ccc(CNC(=O)CSc2nc3ccsc3c(=O)n2-c2ccc(Br)cc2)cc1 | inactive: -14.3%
30 | Cc1ccccc1C(=O)NNc1ncnc2c1cnn2-c1cccc(Cl)c1 | inactive: -13.2%
31 | Cc1ccc(Cn2c(CNC(=O)c3ccc(Cl)c([N+](=O)[O-])c3)nc3cccnc32)cc1 | inactive: -27.4%
32 | CCCc1ccc(NC(=O)C2CCCN(c3cnccn3)C2)cc1 (stereo unspecified) | inactive: 14.6%
33 | CCc1ccc(NC(=O)C2CCN(S(=O)(=O)c3cccc(-c4noc(C)n4)c3)CC2)cc1 | inactive: -28.6%
34 | CCOc1ccc(Nc2nc(C)c(NC(=O)c3cccc(F)c3)c(Nc3ccc(OCC)cc3)n2)cc1 | inactive: -28.4%
35 | CCC1Oc2ccc(C)cc2N(CC(=O)N2CCN(c3ccccc3OC)CC2)C1=O (stereo unspecified) | inactive: 1.89%
36 | Cc1noc(C)c1S(=O)(=O)N(CC(=O)NCCc1ccc(Cl)cc1)c1ccc(C(C)C)cc1 | inactive: -3.3%
37 | Cc1cccc(OCC(=O)Nc2ccc3c(c2)nc(CN2CCCCC2)n3C)c1 | inactive: -37.6%
38 | CCCc1nnc(NC(=O)Cc2coc3c(C)c(C)ccc23)s1 | inactive: 11.9%
39 | Cc1ccc(Cl)cc1N1CCN(S(=O)(=O)c2ccc3c(c2)C(C(C)C)C(=O)N3)CC1 (stereo unspecified) | inactive: -26.7%
40 | O=C(COCc1cc(-c2cccs2)on1)NCc1ccc(F)cc1 | inactive: 5.51%
41 | O=C(Nc1ccc(Cl)cc1)c1ccc(-n2cnnc2)cc1 | inactive: -5.08%
42 | CCc1cc(=O)[nH]c(SCc2nc(-c3cccc(Cl)c3)no2)n1 | inactive: -21.5%
43 | Cc1ccc(-n2ncc3c(N4CCN(Cc5ccccc5)CC4)ncnc32)cc1Cl | inactive: 0%
44 | CC(C)c1ccc(NC(=O)C2CCCN2S(=O)(=O)c2ccc3nc(-c4ccccc4)[nH]c3c2)cc1 (stereo unspecified) | inactive: -22.5%
45 | CCOCCCn1c(SCC(=O)Nc2ccc(CC)cc2)nc2ccccc2c1=O | inactive: -21.7%
46 | COc1ccc(C(=O)N(Cc2sccc2C)C2CCS(=O)(=O)C2)cc1 (stereo unspecified) | inactive: -8.75%
